The target in assay [1] is T1, P329G CAR on P329G CAR-T cells (construct not specified).
T1 construct: also called P329 CAR; PG CAR; not shown: hinge, transmembrane and intracellular parts
The experiment in a line: flow cytometry on P329G CAR-T cells. In general terms: Flow cytometry measures light scatter and fluorescence of single cells or particles in a stream.

Assay [2] concerns the target T2, human Claudin18.2-His (Acro, CL2-H5546) (human, UniProt P56856-2 1-261).
T2 construct: Bought reagent, amine-coupled to a CM5 chip; also called recombinant human CLDN18.2 protein; not shown: His tag
Briefly: SPR (Biacore T200), Claudin18.2-His coupled on CM5 chip, antibody in the mobile phase (avidity). (In general: SPR reads the build-up and loss of mass on a sensor chip optically.)

Assay [3] deals with T3, rat CLDN18.1 on CHO-GS cells (rat, UniProt Q5I0E5 1-261).
T3 construct: whole, on cells; also called murine CLDN18.1
T3 sequence (looked up): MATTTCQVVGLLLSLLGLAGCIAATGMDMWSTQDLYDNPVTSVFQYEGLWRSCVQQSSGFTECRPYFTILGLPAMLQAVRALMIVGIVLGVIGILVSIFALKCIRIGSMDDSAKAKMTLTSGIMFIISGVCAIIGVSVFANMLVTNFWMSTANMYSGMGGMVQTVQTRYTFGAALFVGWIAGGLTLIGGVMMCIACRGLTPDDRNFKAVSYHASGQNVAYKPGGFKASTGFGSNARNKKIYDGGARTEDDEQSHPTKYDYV
The experiment in a line: flow cytometry on CHO-GS cells expressing rat CLDN18.1 (EC50).

Assay [4] addresses T4, mouse CLDN18.1 on CHO-GS cells (mouse, UniProt P56857 1-264).
T4 construct: whole, on cells; also called murine CLDN18.1
The experiment in a line: flow cytometry on CHO-GS cells expressing mouse CLDN18.1 (EC50).

By koff is commonly meant a measure of how fast the partners let go of each other. Read a high koff as fast dissociation. Usually kon stands for the second-order rate constant of association. A lower kon goes with slower complex formation.

T1 sequence (chain, as listed by the source P329G P329G P329G P329G): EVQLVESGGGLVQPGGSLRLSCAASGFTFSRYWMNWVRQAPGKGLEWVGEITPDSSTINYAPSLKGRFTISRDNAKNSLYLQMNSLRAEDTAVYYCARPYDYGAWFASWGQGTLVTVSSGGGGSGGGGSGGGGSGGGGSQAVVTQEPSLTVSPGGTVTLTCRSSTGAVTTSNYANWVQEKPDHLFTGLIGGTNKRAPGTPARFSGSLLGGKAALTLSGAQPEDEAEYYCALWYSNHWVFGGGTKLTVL

B1: HB37A6 antibody, wild-type human IgG1 Fc (antibody)
heavy: EVQLLDSGGGLVQPGGSLRLSCAASGFTFSSYVMSWVRQAPGKGLNWVSTISHSGGSTYYADSVKGRFTISRDNSKNTLYLQMNSLRAEDTAVYYCAIDAPYYDILTGYRYWGQGTLVTVSS[no letters for human IgG1 constant region]
light: not shown
notes: also called WT A6 antibody; A6 WT
Turning to B1, in assay [1], the binding result is “no binding”. Besides, in assay [2], the Kd is less than 5.04 pM, the koff was less than 1e-05 s⁻¹ and the kon came to 1.98e+06 M⁻¹ s⁻¹.

B2: HB37A6 PG Ab (P329G mutated HB37A6 antibody, human IgG1) (antibody)
heavy: EVQLLDSGGGLVQPGGSLRLSCAASGFTFSSYVMSWVRQAPGKGLNWVSTISHSGGSTYYADSVKGRFTISRDNSKNTLYLQMNSLRAEDTAVYYCAIDAPYYDILTGYRYWGQGTLVTVSS[no letters for human IgG1 constant region with changes]
light: not shown
notes: also called A6 PG antibody; P329G A6 antibody
Regarding B2, the binding result in assay [3] is given as “binds”. Further, the binding result in assay [4] is on record as “binds”. For the same molecule, in assay [2], the Kd is less than 4.08 pM, the koff is less than 1e-05 s⁻¹ and the kon worked out at 2.45e+06 M⁻¹ s⁻¹.

The values above are taken from patent publication US20250009801A1 (Innovent, published 2025).
